{"source": "the supplement of paper PMC3334620", "note": "Whole data set: some 33,000 sequences, median “E-score (-0.5 to 0.5)” near -0.054, cut for the highest 2% near 0.39. This is one part of the list.", "data": [{"biological_target": "Ylr278c (UniProt Q05854)", "assay": "PBM E-score (8-mer binding enrichment) (E-score (-0.5 to 0.5)); higher = stronger / more preferred TF binding; most listed sequences are background and not binding sites", "settings": "protein concentration: 200 nM; construct: GST-DNA-binding domain", "procedure,_shortened": "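Universal all-10-mer Agilent arrays, fresh or stripped once, were converted to double-stranded form by primer extension. GST-tagged yeast transcription factors from PURExpress in vitro transcription/translation, full-length or DNA-binding domain only, were applied at about 100-200 nM and detected with fluorescent anti-GST. After masliner normalisation, the Universal PBM Analysis Suite scored each ungapped eight-base word together with its reverse complement by E-score.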", "values": [{"sequence": "GTCACGCA", "PBM E-score": -0.158}, {"sequence": "ACCACCGG", "PBM E-score": 0.366}, {"sequence": "CAGCAAGC", "PBM E-score": -0.271}, {"sequence": "ACTCACTC", "PBM E-score": 0.0211}, {"sequence": "CACCACTC", "PBM E-score": 0.102}, {"sequence": "AGCGGCAA", "PBM E-score": 0.0714}, {"sequence": "GAGCCCCA", "PBM E-score": -0.0517}, {"sequence": "AATTGAAC", "PBM E-score": -0.176}, {"sequence": "ACCCCTGG", "PBM E-score": -0.0693}, {"sequence": "CCATACAG", "PBM E-score": -0.241}, {"sequence": "ACTATAGA", "PBM E-score": 0.0377}, {"sequence": "AGCGCGCA", "PBM E-score": 0.152}, {"sequence": "AATCCCTC", "PBM E-score": -0.0461}, {"sequence": "CGAGCTTC", "PBM E-score": 0.028}, {"sequence": "CCATACTC", "PBM E-score": -0.027}, {"sequence": "CATTTGCA", "PBM E-score": -0.115}, {"sequence": "AAGTTGAA", "PBM E-score": -0.108}, {"sequence": "AGAACCTA", "PBM E-score": -0.227}, {"sequence": "ATGTCTCG", "PBM E-score": 0.0207}, {"sequence": "AGTTCAAG", "PBM E-score": -0.028}, {"sequence": "ACCATCTA", "PBM E-score": -0.077}, {"sequence": "GCCTATGA", "PBM E-score": -0.194}, {"sequence": "GCTGACTA", "PBM E-score": -0.0839}, {"sequence": "GACGCAAA", "PBM E-score": -0.00443}, {"sequence": "TAGCTTAA", "PBM E-score": -0.198}, {"sequence": "ACTATGCA", "PBM E-score": -0.128}, {"sequence": "TAATATAA", "PBM E-score": 0.121}, {"sequence": "GAAGCGCC", "PBM E-score": 0.147}, {"sequence": "ATGCGGTC", "PBM E-score": 0.163}, {"sequence": "AATGAGTG", "PBM E-score": -0.0185}, {"sequence": "CTGATCGC", "PBM E-score": -0.139}, {"sequence": "AAGAATCC", "PBM E-score": 0.066}, {"sequence": "CCATGCGA", "PBM E-score": -0.0449}, {"sequence": "ATCACTAA", "PBM E-score": -0.0464}, {"sequence": "CCCGCCCC", "PBM E-score": 0.361}, {"sequence": "AAGGATGC", "PBM E-score": -0.276}, {"sequence": "CCTGCTAG", "PBM E-score": -0.0936}, {"sequence": "ACATCTCG", "PBM E-score": 0.0498}, {"sequence": "AGGCATTC", "PBM E-score": -0.0371}, {"sequence": "GAGTACCA", "PBM E-score": 0.00448}, {"sequence": "AAACACCT", "PBM E-score": -0.135}, {"sequence": "TATCGTGA", "PBM E-score": -0.0632}, {"sequence": "AGGTGTAC", "PBM E-score": -0.2}, {"sequence": "AGTTCCAT", "PBM E-score": -0.105}, {"sequence": "AAGATGTG", "PBM E-score": -0.175}, {"sequence": "GGACTACC", "PBM E-score": 0.193}, {"sequence": "ACGCCCAC", "PBM E-score": -0.0697}, {"sequence": "GGTTGTGA", "PBM E-score": -0.0147}, {"sequence": "GGCGTCTA", "PBM E-score": -0.096}, {"sequence": "TTAGACAA", "PBM E-score": 0.0185}, {"sequence": "GCGCTGAA", "PBM E-score": 0.102}, {"sequence": "AAGAAAAA", "PBM E-score": -0.0988}, {"sequence": "ATGACCTG", "PBM E-score": -0.135}, {"sequence": "ACGCACCG", "PBM E-score": 0.11}, {"sequence": "CGTTGCGA", "PBM E-score": -0.109}, {"sequence": "CTACTGAG", "PBM E-score": -0.0898}, {"sequence": "TCCAAAGA", "PBM E-score": -0.154}, {"sequence": "CCTCAATA", "PBM E-score": -0.148}, {"sequence": "ATTACTGA", "PBM E-score": -0.318}, {"sequence": "CCTAAGCC", "PBM E-score": -0.073}, {"sequence": "CCCGAACC", "PBM E-score": 0.251}, {"sequence": "CAAACCAG", "PBM E-score": -0.23}, {"sequence": "CCGGTGCG", "PBM E-score": 0.369}, {"sequence": "CAGTGGTC", "PBM E-score": -0.0541}, {"sequence": "GGTCCTGA", "PBM E-score": -0.00471}, {"sequence": "GGTAACAC", "PBM E-score": -0.0507}, {"sequence": "CCTGGTAG", "PBM E-score": -0.236}, {"sequence": "CCTTATAC", "PBM E-score": -0.183}, {"sequence": "CAGTCACG", "PBM E-score": -0.108}, {"sequence": "CACACGCA", "PBM E-score": -0.147}, {"sequence": "CACACCGG", "PBM E-score": 0.283}, {"sequence": "AAATATTT", "PBM E-score": -0.0704}, {"sequence": "CTGCTGGC", "PBM E-score": -0.119}, {"sequence": "ACCGTCCG", "PBM E-score": 0.3}, {"sequence": "AATTTTCA", "PBM E-score": -0.091}, {"sequence": "GACACTCA", "PBM E-score": -0.115}, {"sequence": "CCACTCTA", "PBM E-score": -0.218}, {"sequence": "ACTCCACT", "PBM E-score": -0.269}, {"sequence": "CTGCCAGA", "PBM E-score": -0.129}, {"sequence": "ACAGCTTG", "PBM E-score": -0.187}, {"sequence": "TAATGCGA", "PBM E-score": -0.00926}, {"sequence": "CTTTCACC", "PBM E-score": 0.111}, {"sequence": "ATATACCG", "PBM E-score": 0.271}, {"sequence": "CGCAGCTA", "PBM E-score": -0.0597}, {"sequence": "AGTACACC", "PBM E-score": -0.0926}, {"sequence": "CACTGGGC", "PBM E-score": 0.00217}, {"sequence": "GCTAATCC", "PBM E-score": 0.159}, {"sequence": "CAAGATCG", "PBM E-score": 0.047}, {"sequence": "CTGTGGAA", "PBM E-score": -0.0269}, {"sequence": "CTGTAAGC", "PBM E-score": -0.172}, {"sequence": "GGTGCATA", "PBM E-score": 0.0221}, {"sequence": "TTGAGAAA", "PBM E-score": -0.137}, {"sequence": "GCGGACCA", "PBM E-score": 0.279}, {"sequence": "ATGTAATA", "PBM E-score": -0.0246}, {"sequence": "CTTGAACA", "PBM E-score": -0.0133}, {"sequence": "CAAGAGCC", "PBM E-score": -0.0285}, {"sequence": "AAGCCGGA", "PBM E-score": 0.417}, {"sequence": "AACGTCGC", "PBM E-score": -0.089}, {"sequence": "TATCTGCA", "PBM E-score": -0.177}, {"sequence": "ACCTCCCG", "PBM E-score": 0.0782}, {"sequence": "AATCCGGT", "PBM E-score": 0.442}, {"sequence": "CAGGGGAC", "PBM E-score": -0.151}, {"sequence": "CGATGGCG", "PBM E-score": 0.145}, {"sequence": "TACAAGGA", "PBM E-score": 0.0808}, {"sequence": "GGCTCCTA", "PBM E-score": -0.0379}, {"sequence": "AAATTCTT", "PBM E-score": -0.168}, {"sequence": "CTTCACCC", "PBM E-score": 0.133}, {"sequence": "GAAACCAC", "PBM E-score": -0.11}, {"sequence": "ACGTGCAA", "PBM E-score": 0.00724}, {"sequence": "GTTACGAA", "PBM E-score": -0.00304}, {"sequence": "CAGCCCGC", "PBM E-score": -0.0821}, {"sequence": "GACTAGAC", "PBM E-score": -0.291}, {"sequence": "CAAACACG", "PBM E-score": -0.0958}, {"sequence": "TGCGCTAA", "PBM E-score": 0.0463}, {"sequence": "GCCGTTCC", "PBM E-score": 0.123}, {"sequence": "ATTGGCAG", "PBM E-score": -0.0574}, {"sequence": "TATCTTGA", "PBM E-score": -0.0421}, {"sequence": "CAGCAAAG", "PBM E-score": -0.117}, {"sequence": "ACGCTGCC", "PBM E-score": 0.0211}, {"sequence": "AAACAATA", "PBM E-score": 0.158}, {"sequence": "AGTCTCTC", "PBM E-score": -0.131}, {"sequence": "GTCTCGAA", "PBM E-score": -0.299}, {"sequence": "GACATAGA", "PBM E-score": -0.106}, {"sequence": "CTCAAAAG", "PBM E-score": -0.0564}, {"sequence": "CGTATGCC", "PBM E-score": 0.107}, {"sequence": "TACCGCCA", "PBM E-score": 0.126}, {"sequence": "GCGCCAGA", "PBM E-score": -0.116}, {"sequence": "TCCATTAA", "PBM E-score": "-5e-05"}, {"sequence": "AAAGTGCG", "PBM E-score": 0.203}, {"sequence": "GTATCCAC", "PBM E-score": -0.171}, {"sequence": "TTAGCAAA", "PBM E-score": -0.0537}, {"sequence": "ATTCATAG", "PBM E-score": -0.222}, {"sequence": "GCTTGTAC", "PBM E-score": -0.0773}, {"sequence": "CAATTGGC", "PBM E-score": -0.083}, {"sequence": "ACCGAACA", "PBM E-score": 0.0403}, {"sequence": "CCGGAGCA", "PBM E-score": 0.473}, {"sequence": "TGTACAAA", "PBM E-score": -0.0126}, {"sequence": "AGCTCTGC", "PBM E-score": -0.265}, {"sequence": "AGCTTGCG", "PBM E-score": -0.124}, {"sequence": "AATGTAGA", "PBM E-score": -0.0393}, {"sequence": "AGAGTTAG", "PBM E-score": 0.0221}, {"sequence": "CTGTATAA", "PBM E-score": -0.0726}, {"sequence": "AAATTAAT", "PBM E-score": 0.0494}, {"sequence": "TGACGCCA", "PBM E-score": -0.259}, {"sequence": "GAGCCGAC", "PBM E-score": 0.114}, {"sequence": "CGCCTATA", "PBM E-score": 0.173}, {"sequence": "CCTACACC", "PBM E-score": -0.00674}, {"sequence": "GCCTTAGA", "PBM E-score": -0.055}, {"sequence": "CATATGGA", "PBM E-score": -0.198}, {"sequence": "CTGAGAAG", "PBM E-score": -0.149}, {"sequence": "ATTGCCCA", "PBM E-score": -0.185}, {"sequence": "GACGGAGA", "PBM E-score": 0.453}, {"sequence": "ACTAACCC", "PBM E-score": 0.00135}, {"sequence": "AGTCATCG", "PBM E-score": -0.00753}, {"sequence": "TCGTGTAA", "PBM E-score": -0.0614}, {"sequence": "CGGGTCAG", "PBM E-score": 0.246}, {"sequence": "CGCGAAAG", "PBM E-score": 0.0257}, {"sequence": "CTTACTAA", "PBM E-score": -0.181}, {"sequence": "GATGAGAC", "PBM E-score": -0.0509}, {"sequence": "CTGCCTTC", "PBM E-score": -0.115}, {"sequence": "GCTCACCC", "PBM E-score": -0.0345}, {"sequence": "AAGCCCAT", "PBM E-score": -0.169}, {"sequence": "AAGGCCAA", "PBM E-score": -0.179}, {"sequence": "AACATCAT", "PBM E-score": -0.25}, {"sequence": "CCTATTGA", "PBM E-score": -0.216}, {"sequence": "AGACCTAT", "PBM E-score": -0.173}, {"sequence": "AGGCGTCC", "PBM E-score": 0.0368}, {"sequence": "GGCGGAAC", "PBM E-score": 0.349}, {"sequence": "CATCCAGC", "PBM E-score": -0.211}, {"sequence": "CCATGGCC", "PBM E-score": -0.189}, {"sequence": "GAGCTAGA", "PBM E-score": -0.0445}, {"sequence": "AACAAAAG", "PBM E-score": -0.201}]}]}
